{
  "source": "ChEMBL document CHEMBL1932938",
  "about": "“From COX-2 inhibitor nimesulide to potent anti-cancer agent: synthesis, in vitro, in vivo and pharmacokinetic evaluation” (Eur J Med Chem, 2012)",
  "system": "NCI-H322M",
  "conditions": "Homo sapiens, 48 h",
  "data": [
    {"smiles": "Cc1ccc(C)c(COc2cc(NC(=O)c3ccc4c(c3)OCO4)ccc2N(C)S(C)(=O)=O)c1", "values": [
      {"measurement": "GI50", "value": 468, "unit": "nM"},
      {"measurement": "TGI", "value": "> 100", "unit": "µM"},
      {"measurement": "CC50", "setting": "read-out: LC50 (the source's name)", "value": "> 100", "unit": "µM"}
    ]}
  ]
}
